From paper PMC5940305, “The Rab11-binding protein RELCH/KIAA1468 controls intracellular cholesterol distribution” (The Journal of Cell Biology, 2018)
Results are given in words; binding and its absence hold for the method and conditions named. In cells and extracts the contact can be indirect. Some results given as binding are weak or reduced against the parent protein; the word gives no strength. Tags and fused reporters may be left off the sequences shown.

Experiments:
[1] = target: T1, Flag-tagged OSBP 643–807 (human) (UniProt P22059); assay: co-IP; HEK293FT cells coexpressing Flag-tagged OSBP and Myc-tagged RELCH constructs; anti-Flag M2 affinity gel, elution with Flag-peptide, immunoblot with Myc and Flag antibodies
T1 sequence: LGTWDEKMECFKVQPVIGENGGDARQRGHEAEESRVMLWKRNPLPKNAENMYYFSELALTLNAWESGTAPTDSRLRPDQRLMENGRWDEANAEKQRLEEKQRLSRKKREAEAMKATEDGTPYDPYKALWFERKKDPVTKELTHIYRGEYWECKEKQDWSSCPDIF

[2] = target: T2, Flag-tagged OSBP 405–807 (human) (UniProt P22059); assay: as above
T2 sequence: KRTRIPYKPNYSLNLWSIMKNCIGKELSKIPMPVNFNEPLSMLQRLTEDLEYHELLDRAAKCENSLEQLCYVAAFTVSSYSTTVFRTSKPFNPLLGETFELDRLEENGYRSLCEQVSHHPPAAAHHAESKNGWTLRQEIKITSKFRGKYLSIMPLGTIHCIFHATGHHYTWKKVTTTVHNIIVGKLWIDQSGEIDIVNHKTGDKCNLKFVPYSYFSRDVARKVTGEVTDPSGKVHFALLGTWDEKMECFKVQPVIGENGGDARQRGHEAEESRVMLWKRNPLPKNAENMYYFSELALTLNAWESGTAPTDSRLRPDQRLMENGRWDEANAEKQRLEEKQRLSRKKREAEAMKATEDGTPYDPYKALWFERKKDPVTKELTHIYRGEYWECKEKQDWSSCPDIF

[3] = target: T3, Flag-OSBP, full length (human) (UniProt P22059); assay: as above
T3 sequence: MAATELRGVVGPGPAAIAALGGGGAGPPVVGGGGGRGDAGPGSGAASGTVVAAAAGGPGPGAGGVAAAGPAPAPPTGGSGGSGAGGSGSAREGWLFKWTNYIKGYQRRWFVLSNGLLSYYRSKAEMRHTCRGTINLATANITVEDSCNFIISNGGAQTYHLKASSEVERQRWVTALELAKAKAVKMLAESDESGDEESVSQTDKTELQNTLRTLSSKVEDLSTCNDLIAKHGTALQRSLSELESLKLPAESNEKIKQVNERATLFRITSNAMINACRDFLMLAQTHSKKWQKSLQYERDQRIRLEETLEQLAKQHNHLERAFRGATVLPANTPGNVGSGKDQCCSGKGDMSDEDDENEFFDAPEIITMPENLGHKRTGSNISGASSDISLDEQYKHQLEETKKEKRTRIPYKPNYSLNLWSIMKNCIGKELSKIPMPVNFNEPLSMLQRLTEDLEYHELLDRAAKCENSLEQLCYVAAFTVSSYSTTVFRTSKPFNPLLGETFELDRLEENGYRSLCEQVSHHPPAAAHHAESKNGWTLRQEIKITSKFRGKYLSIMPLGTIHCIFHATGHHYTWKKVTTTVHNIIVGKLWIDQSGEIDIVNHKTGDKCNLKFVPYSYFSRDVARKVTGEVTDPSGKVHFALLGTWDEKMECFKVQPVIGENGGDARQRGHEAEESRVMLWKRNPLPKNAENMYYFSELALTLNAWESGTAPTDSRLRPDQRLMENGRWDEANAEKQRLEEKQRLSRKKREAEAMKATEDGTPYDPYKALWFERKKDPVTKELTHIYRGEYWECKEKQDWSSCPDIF

[4] = target: T4, Flag-tagged OSBP 1–404 (human) (UniProt P22059); assay: as above
T4 sequence: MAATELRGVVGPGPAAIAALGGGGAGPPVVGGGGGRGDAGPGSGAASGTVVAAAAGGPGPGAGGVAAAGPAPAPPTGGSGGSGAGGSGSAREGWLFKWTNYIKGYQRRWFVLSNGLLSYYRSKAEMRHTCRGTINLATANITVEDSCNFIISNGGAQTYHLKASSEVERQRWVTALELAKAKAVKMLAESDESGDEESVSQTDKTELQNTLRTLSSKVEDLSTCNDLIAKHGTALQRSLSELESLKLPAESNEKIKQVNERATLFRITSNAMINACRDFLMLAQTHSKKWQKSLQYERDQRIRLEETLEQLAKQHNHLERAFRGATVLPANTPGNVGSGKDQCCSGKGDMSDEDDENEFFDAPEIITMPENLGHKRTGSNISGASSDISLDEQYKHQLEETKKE

[5] = target: T5, Flag-tagged OSBP 458–729 (human) (UniProt P22059); assay: as above
T5 sequence: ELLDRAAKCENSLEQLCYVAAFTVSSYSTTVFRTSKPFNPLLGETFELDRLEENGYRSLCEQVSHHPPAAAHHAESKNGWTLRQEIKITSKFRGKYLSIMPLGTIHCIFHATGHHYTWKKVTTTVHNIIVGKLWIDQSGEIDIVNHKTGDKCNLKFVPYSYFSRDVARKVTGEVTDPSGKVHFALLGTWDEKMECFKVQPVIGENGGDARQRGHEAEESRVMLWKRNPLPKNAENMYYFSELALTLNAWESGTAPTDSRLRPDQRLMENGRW

[6] = target: T6, Flag-tagged OSBP 405–729 (human) (UniProt P22059); assay: as above
T6 sequence: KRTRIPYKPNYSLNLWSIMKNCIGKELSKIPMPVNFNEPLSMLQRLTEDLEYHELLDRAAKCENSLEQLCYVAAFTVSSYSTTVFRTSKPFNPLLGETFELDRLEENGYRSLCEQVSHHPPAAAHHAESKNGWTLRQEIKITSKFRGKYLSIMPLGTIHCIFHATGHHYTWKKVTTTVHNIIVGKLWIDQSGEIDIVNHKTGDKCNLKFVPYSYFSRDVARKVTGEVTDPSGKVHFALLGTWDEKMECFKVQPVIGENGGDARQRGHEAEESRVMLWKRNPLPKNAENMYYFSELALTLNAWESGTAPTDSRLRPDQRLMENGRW

[7] = target: T3, Flag-OSBP, full length (human); assay: co-IP; Flp-In–293 cells coexpressing Flag-, EGFP- and Myc-tagged Rab11a, RELCH and OSBP; anti-Flag M2 affinity gel, immunoblot with EGFP, Myc and Flag antibodies

B1: Myc-tagged RELCH, full length (protein, UniProt Q148V7 1-1216)
chain: MAAMAPGGGGSGSGVNPFLSDSDEDDDEVAATEDRRAGLRLGAGVGLDPGSAGSLSPQDPMALGSSARPGLAVEMSAAPAALGGSGETPARLSIDAIAAQLLRDQYLLTALELHTELLESGRELPRLRDYFSNPGNFERQSGTPPGMGAPGIPGASIVGGAGGREPSTTSGGGQLNRAGSISTLDSLDFARYSDDGNRETDERVAVLEFELRKAKETIQALRANLTKAAEHEVPLQERKNYKSSPEIQEPIKPLEKRALNFLVNEFLLKNNYKLTSITFSDENDDQDFELWDDVGLNIPKPPDLLQLYRDFGNHQVTGKDLVDVASGVDEDELEALTPILGNVPPTLDTPLPIENTLLVQKLEDKISLLNNEKWSLMEQIRRLESEMDILKAEHFATPAVGDSVQPSLVWSSQKDSEDNRQSPAVNSSDQEKTKDVHLEIPDAADSFIPKENSSGSFPRKEREELPPSSVSNKTTLHFDQPNRKLSPAFHQALLSFCRMSADSRLGSEVSRIADSEKSVMLMLGRCLPHIVPNVLLAKREELIPLILCTACLHPEPKERDQLLHILFNLIKRPDDEQRQMILTGCVAFARHVGPTRVEAELLPQCWEQINHKYPERRLLVAESCGALAPYLPKEIRSSLVLSMLQQMLMEDKADLVREAVIKSLGIIMGYIDDPDKYQQGFELLLSALGDPSERVVSATHQVFLPAYAAWTTELGNLQSHLIPTLLNKIEKLLREGEHGLDEHKLHMYLSALQSLIPSLFALVLQNAPFSSKAKLHGEVPHIEVTRFPRPMSPLQDVSTIIGSREQLAVLLQLYDYQLEHEGTTGWESLLWVVNQLLPQLIEIVGKINVTSTACVHEFSRFFWRLCRTFGKIFTNTKVKPQFQEILRLSEENIDSSAGNGVLTKATVPIYATGVLTCYIQEEDRKLLVGFLEDVMTLLSLSHAPLDSLKASFVELGANPAYHELLLTVLWYGVVHTSALVRCTAARMFELLVKGVNETLVAQRVVPALITLSSDPEISVRIATIPAFGTIMETVIQRELLERVKMQLASFLEDPQYQDQHSLHTEVIRTFGRVGPNAEPRFRDEFVIPHLHKLALVNNLQIVDSKKLDIATHLFEAYSALSCCFISEDLMVNHFLPGLRCLRTDMEHLSPEHEVILSSMIKECEQKVENKTVQEPPGSMSIAASLVSEDTKTKFLNKMGQLTTSGAMLANVFQRKK
[1]
  binding: no binding
[2]
  binding: binds
[3]
  binding: binds
[4]
  binding: no binding
[5]
  binding: binds
[6]
  binding: binds
[7]
  binding: binds
